This is an account of results in PubChem BioAssay AID1963576 (National Center for Advancing Translational Sciences (NCATS), 2024).

The whole screen tested about 46,000 compounds, of which about 60 (0.1%) were called active. About 3% were inconclusive and are not listed. Calls follow the shape of the dose curve; as a rule, active = well fitted inhibition curve with a large enough effect; inconclusive = small, poorly fitted or top-dose-only effect; inactive = no such curve, though single readings can be large or run the other way. The list shows a part of the results.

The nature of the experiment: Primary qHTS assay for Inhibitors of ovarian cancer metastasis using an organotypic tumor microenvironment (TME) model. Also: nearly all actives have a fitted effect of over 65% in size.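 As to activity change, negative = inhibition: plate controls were DMSO wells for no effect and tomatine positive control wells for full effect.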 The settings on record: SKOV3ip1-GFP adhesion/invasion on 3D omental model, fluorescence; series mostly up to 45.8 µM; activity change, negative = inhibition: at the top concentration. An outline of the steps: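 Primary human omental fibroblast/mesothelial 3D culture pre-formed 48 h. SKOV3ip1-GFP cells added with compounds (0.36-46 umol/L), incubated 2 h RT/16 h 37 C, fixed; GFP cells quantified at 488/509 nm.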
`Cc1ccc(C)c(-c2nc(Cn3c(=O)cc(-c4ccccc4)c4c(C)nn(C)c43)c(C)o2)c1`: the “activity change, negative = inhibition” value was inactive: -3.62%.

With `CC(C)(C)C(=O)CSc1nc2ccsc2c(=O)n1Cc1ccccc1F`, the call was inactive.

Take `O=c1c2sc3ccccc3c2n(Cc2cccc(C(F)(F)F)c2)c(=O)n1Cc1ccco1`: the “activity change, negative = inhibition” value was inactive: -3.08%.

In the case of `c1nc2nc(Nc3ccc(N4CCOCC4)cc3)nc(NC3CCCCC3)c2[nH]1`, the “activity change, negative = inhibition” value is inactive: -3.69%.

For `CN1CCN(CCCNC(=O)c2cnn(-c3ccccc3)c2-n2cccc2)CC1`, the outcome was inactive.

Regarding `Cc1ccc(OCC(=O)Nc2ccc(S(=O)(=O)Nc3ncccn3)cc2)c(C(C)(C)C)c1`, the “activity change, negative = inhibition” value was inactive: -4.7%.

`Cc1cccc(NC(=O)C2CCCN(S(=O)(=O)c3cccc4nonc34)C2)c1C` (stereo not drawn): the “activity change, negative = inhibition” value was inactive: -1.71%.

With `CCN(C(=O)CCc1nc(-c2ccc(C)cc2)no1)c1cc(C)ccc1C`, the “activity change, negative = inhibition” value was inactive: -19.5%.

Regarding `CCCCN(C)CCCNC(=O)c1ccc2nc(N3CCCCC3)sc2c1`, the “activity change, negative = inhibition” value was inactive: 17.1%.

With `COc1cc2c(cc1NC(=O)COc1cc(C)ccc1C)oc1ccccc12`, the “activity change, negative = inhibition” value was inactive: -5.51%.

In the case of `CCCOC(=O)c1c(C)oc2c1cc(NS(=O)(=O)c1ccc(OCC)cc1)c1ccccc12`, the compound was classed as inactive.

In the case of `COc1ccc(-c2cn3c(n2)sc2cc(C(=O)NC4CCCc5ccccc54)ccc23)cc1` (stereo not drawn), the outcome was inactive.

As to `Cc1cc(C(=O)O)c2c(=O)n(C)c(=O)n(C)c2n1`, the call was inactive.

Consider `Cc1cccc(N2CCN(C(=O)c3cn(C4CCCCC4)c(=O)c4c3c3ccccc3n4C)CC2)c1C`, for which the “activity change, negative = inhibition” value is inactive: 9.39%.

In the case of `Cc1cc2oc(=O)c(CC(=O)NCCc3ccccc3)c(C)c2c2occ(C(C)(C)C)c12`, the call was inactive.

Regarding `Cc1ccc(Cn2c(CNS(=O)(=O)c3c(C)cc(C)cc3C)nc3cccnc32)cc1`, the “activity change, negative = inhibition” value was inactive: -5.48%.

As for `Cc1c(C)n(Cc2ccccc2)c2ccc(C(=O)NC(C)c3ccccc3)cc12` (stereo not drawn), the “activity change, negative = inhibition” value was inactive: -8.45%.

`CC(=O)Nc1nonc1-c1nnc(SCC(=O)Nc2ccc(F)cc2F)n1-c1ccccc1`: the “activity change, negative = inhibition” value is inactive: 9.47%.

As for `CCOC(=O)c1ccc(N2CCN(c3cc(Cl)ccc3C)CC2)c(NC(=O)Nc2cccc(OC)c2)c1`, the “activity change, negative = inhibition” value was inactive: 2.91%.

For the compound `Cc1cccc(OCCSc2nc3ccccc3n2CC(=O)N2CCCCC2)c1C`, the “activity change, negative = inhibition” value is inactive: -18.5%.

For the compound `CCN(Cc1ccccc1)Cc1c(O)ccc2c(=O)c(-c3ccccc3OC)c(C(F)(F)F)oc12`, the “activity change, negative = inhibition” value is inactive: -5.41%.

On to `CCn1ccc2cc(S(=O)(=O)N3CCCN(C(=O)Nc4ccccc4OC)CC3)ccc21`, for which the “activity change, negative = inhibition” value was inactive: 0.728%.

For `CCc1ccc(OCC(=O)N(Cc2cccs2)c2ccc(Cl)cc2)cc1`, the “activity change, negative = inhibition” value was inactive: 65.6%.

For the compound `CCOCCCNC(=O)C1CCCN(Cc2nc(-c3ccc(CC)cc3)oc2C)C1` (stereo not drawn), the “activity change, negative = inhibition” value is inactive: 9.4%.

Regarding `CCOC(=O)N1CCN(S(=O)(=O)N2CCCC(C(=O)NCc3cc(OC)ccc3OC)C2)CC1` (stereo not drawn), the “activity change, negative = inhibition” value was inactive: -7.78%.

`Cc1nc(CC(=O)Nc2ccc(C)c(C)c2)cs1`: the “activity change, negative = inhibition” value is inactive: -3.31%.

In the case of `CCc1ccc(-n2c(SC(CC)C(=O)N(CC)CC)nc3n[nH]c(C)c3c2=N)cc1` (stereo not drawn), the “activity change, negative = inhibition” value is inactive: 6.21%.

In the case of `COc1ccc(N2CC(NC(=O)/C=C\c3ccc(OC)c(OC)c3)CC2=O)cc1` (stereo not drawn), the “activity change, negative = inhibition” value is inactive: 0.835%.

Take `CCCCOc1ccc(C2=NC(c3ccncc3)=Nc3ccc(Br)cc3N2)cc1`: the “activity change, negative = inhibition” value is inactive: -26.2%.

As to `COc1ccc(-c2nc(CS(=O)CC(=O)NCc3ccc(F)cc3)c(C)o2)cc1OC` (stereo not drawn), the call was inactive.

Regarding `COc1ccc(N2CCN(C(CNC(=O)CC(C)C)c3ccc4c(c3)OCO4)CC2)cc1` (stereo not drawn), the “activity change, negative = inhibition” value was inactive: 10.5%.

For the compound `CCc1cccc(CC)c1NC(=O)Cn1nnc2sc(-c3ccccc3)cc2c1=O`, the “activity change, negative = inhibition” value was inactive: -21.8%.

Regarding `CCCCCn1c(=O)[nH]c2cc(C(=O)N3CCN(c4ccccc4)CC3)ccc2c1=O`, the compound was classed as inactive.

In the case of `Cc1ccc(/C=C/c2onc(C)c2S(=O)(=O)N2CCC(C(=O)N3CC(C)Oc4ccccc43)CC2)cc1` (stereo not drawn), the “activity change, negative = inhibition” value was inactive: -15.7%.

Consider `Cc1c(Cl)cccc1-n1ncc(C(=O)N2CCc3ccccc3C2)c1C1CCN(C(=O)OC(C)(C)C)CC1`, for which the “activity change, negative = inhibition” value was inactive: -7.9%.

For the compound `CCOc1ccccc1N(CC)C(=O)Nc1cn(C)c(=O)c2ccccc12`, the compound was called inactive.

As to `COc1ccc(OCC(=O)Nc2ccc(C(=O)OCc3cc(=O)n4nc(C)sc4n3)cc2)cc1`, the “activity change, negative = inhibition” value is inactive: -9.26%.

As to `CC(=O)N1CCC(N(C(=O)Nc2ccc(C)c(F)c2)C(C)C)CC1`, the “activity change, negative = inhibition” value is inactive: -1.76%.

As to `COc1cc(Cl)c(NS(=O)(=O)c2ccc3c(c2)CC(C)N3C(=O)C2CCC2)c(OC)c1` (stereo not drawn), the “activity change, negative = inhibition” value is inactive: -1.16%.

Consider `Cc1ccc(C(Nc2ccccn2)c2ccc3cccnc3c2O)cc1` (stereo not drawn), for which the “activity change, negative = inhibition” value is inactive: -28%.

On to `COc1ccccc1NC(=O)CCS(=O)(=O)c1ccc2nc(C)sc2c1`, for which the “activity change, negative = inhibition” value is inactive: -8.41%.

Consider `CCOc1ccccc1NC(=O)Nc1nnc(N(C)Cc2ccccc2)s1`, for which the result was inactive.

`CCc1ccc(NC(=O)CC2C(=O)N(c3cccc(OC)c3)C(=O)N2Cc2ccco2)cc1` (stereo not drawn): the “activity change, negative = inhibition” value is inactive: 22.1%.

Regarding `Cc1ccc(NC(=O)c2oc3ccccc3c2NC(=O)Cc2cccs2)cc1`, the “activity change, negative = inhibition” value is inactive: 4.74%.

As to `COc1ccc2c(c1)cc1c(=O)n(CC(=O)NC3CCCCC3)nc(C)n12`, the compound was classed as inactive.

With `CCn1c(C(=O)N2CCCC(C(=O)NCCCOC)C2)cc2sccc21` (stereo not drawn), the “activity change, negative = inhibition” value was inactive: -0.88%.

On to `O=C(CCn1cnc2onc(-c3ccc(F)cc3)c2c1=O)N1CCN(c2ccc(F)cc2)CC1`, for which the result was inactive.

For the compound `COc1cc(Cl)c(C)cc1NC(=O)CCc1c(C)nc2cc(-c3cccc(F)c3)nn2c1C`, the result was inactive.
